These results are taken from ChEMBL document CHEMBL4888484, “Replenishing the malaria drug discovery pipeline: Screening and hit evaluation of the MMV Hit Generation Library 1 (HGL1) against asexual blood stage Plasmodium falciparum ,using a nano luciferase reporter read-out” (2022).

Molecules are shown by their SMILES. Hit rate of the full screen: of about 150,000 compounds, about 540 (0.36%) showed an effect of 50% or more. The list shows a part of the results.

This assay relates to Plasmodium falciparum. Kind of assay: Primary screen in NF54 nanoGlo assay, in single point, at 2uM, 72h; a lower Z score goes with more inhibition. Conditions: timepoint 72 hour. The assay is classed as functional, Erythrocyte.
A word on the % Inhibition: it is the drop in the measured response relative to a control, in per cent. For the molecule `C#CCNC(=O)N1CCC(C(C)(C)C)C(O)C1` (stereo unspecified), the “% Inhibition” value was -6% and the Z score is recorded as 0.5.
Turning to `C[C@H]1CN(C(=O)c2ccc(-c3c(O)ccc4ccccc34)cc2)CCCO1`, the “% Inhibition” value was -25% and the Z score is on record as 2.95.
Taken in the same sequence, the figures for `C=CCNC(=O)[C@H]1CCCC[C@H]1C(=O)NCC1(O)CCCCC1` were 2% and -0.24.
As for `Cc1ccc(CN(C)[C@@H](C)CC(N)=O)cc1`, the “% Inhibition” value is -15% and the Z score was 1.77.
For the molecule `CC(C)c1noc([C@H](C)NS(=O)(=O)c2cccc3nn(C)nc23)n1`, the “% Inhibition” value is reported as -5% and the Z score is recorded as 0.7.
Turning to `Cc1cc(O)c([C@H](c2ccccc2)N2CCN(c3ccccc3)CC2)c(=O)n1Cc1ccccn1`, the “% Inhibition” value came out at 6% and the Z score is listed as -0.83.
Taken in the same sequence, the figures for `COc1c(C)cc(S(=O)(=O)NC[C@@H](c2ccsc2)N2CCc3ccccc3C2)cc1C` were -16% and 2.01.
For the molecule `COC(=O)c1cccc(OCc2noc(C3CCOC3C(C)C)n2)c1` (stereo unspecified), the “% Inhibition” value is -4% and the Z score turned out to be 0.44.
Taken in the same sequence, the figures for `O=C1NC[C@H]2CN(S(=O)(=O)C3CCC(F)(F)CC3)CCN12` were -2% and 0.34.
The like results for `Cc1ccc(C(=O)NCCNc2ncccn2)cn1` were, in that order, 0% and -0.04.
The like results for `CCc1ccccc1C(=O)NCC1CCN(c2nc(N)c3cnn(C)c3n2)CC1` were, in that order, 1% and -0.22.
Take `COC[C@@]1(C)CN(C(=O)NCc2nc(C(F)(F)F)no2)CCO1`: the “% Inhibition” value is given as -12% and the Z score was determined as 1.33.
The like results for `Cn1nccc1C1(O)CN(C(=O)CCCC2CCCCC2)C1` were, in that order, 13% and -1.74.
Taken in the same sequence, the figures for `Cc1ccc(C)c(Cn2ccn3nc(-c4ccc(C)c(C)c4)cc3c2=O)c1` were -7% and 0.91.
`O=C1N[C@H](CC(=O)N2CCOC(c3ccccc3)C2)C(=O)Nc2ccccc21` (stereo partly specified): the “% Inhibition” value turned out to be 1% and the Z score is reported as -0.1.
Taken in the same sequence, the figures for `CC1=Nc2ccccc2C12CCN(CCO[C@@H]1CCCCO1)CC2` were -1% and 0.1.
Consider `COCC[C@H]1CN(S(=O)(=O)CC2CCCC2)CCO1`, for which the “% Inhibition” value is listed as -20% and the Z score is recorded as 1.97.
Taken in the same sequence, the figures for `CCN1CCN([C@H]2CCN(Cc3ccc(OC)c(Cl)c3)C2)CC1` were 4% and -0.44.
The like results for `C[C@@H](c1cccnc1)N(C)CCNS(C)(=O)=O` were, in that order, -12% and 1.09.
Taken in the same sequence, the figures for `O=C(NCCc1csc(-c2ccccc2)n1)C1CCN(C(=O)c2ccc(F)c(Cl)c2)CC1` were -14% and 1.78.
Turning to `CC(C)c1nc(CC(=O)NCC(C)(C)N(C)C)cs1`, the “% Inhibition” value is -10% and the Z score is 1.36.
Taken in the same sequence, the figures for `CN(CCCc1nccn1C)C(=O)Nc1ccc2c(c1)OCC(=O)N2C` were -2% and 0.19.
Taken in the same sequence, the figures for `C[C@@H](C(=O)NS(=O)(=O)CC(C)(C)C)c1ccc(F)cc1F` were -9% and 0.92.
With `Cc1ccc(-c2nc3c(OCc4ccccc4)cccn3c2NC2CCCCC2)cc1`, the “% Inhibition” value was found to be 1% and the Z score is given as -0.22.
Taken in the same sequence, the figures for `CC(C)Cc1noc([C@H](C)NC(=O)N(C)CCN2CCCCCC2)n1` were -10% and 1.24.
As for `Cc1ccc(-c2cc(-c3ccccc3)nc3c2COc2ccc(F)cc2-3)cc1`, the “% Inhibition” value is 1% and the Z score is -0.1.
Taken in the same sequence, the figures for `COCCc1ncc(CN2CC(Oc3cccc(OC)c3)C2)cn1` were 1% and -0.11.
The like results for `Cc1noc(C)c1CN1CC2(CCN(c3cc(N(C)C)ncn3)CC2)CC1=O` were, in that order, -1% and 0.24.
Taken in the same sequence, the figures for `COCCNC(=O)C[C@H](c1ccccc1Cl)c1cn(Cc2ccccc2)c2ccccc12` were -1% and 0.1.
As for `CC(=O)N1C[C@@H]2CN(C(=O)c3ccc(Cl)cc3)CCN2C(C)(C)C1`, the “% Inhibition” value amounted to 10% and the Z score is recorded as -1.26.
Taken in the same sequence, the figures for `O=C(NCc1ccccn1)c1cnc(-c2ccccc2)nc1N1CCC(Cc2ccccc2)CC1` were 17% and -2.17.
For the molecule `O=C1CN(C(=O)CN(CC2CCCCC2)C2CC2)CCN1`, the “% Inhibition” value is given as -8% and the Z score came to 1.03.
The like results for `CC1(NC(=O)NCc2ccc(C3CC3)cc2)CCOC1C1CC1` (stereo unspecified) were, in that order, -4% and 0.67.
Taken in the same sequence, the figures for `O=C(NCC1(N2CCOCC2)CC1)N1CCC[C@H]1c1cccc(F)c1` were 3% and -0.28.
The like results for `Cc1cc(NC(=O)COc2ccccc2Br)c[nH]c1=O` were, in that order, 5% and -0.6.
For `CC[C@@H](CO)NCc1c[nH]nc1C(C)(C)C`, the “% Inhibition” value was -10% and the Z score worked out at 1.38.
The like results for `CCc1nc(C)c(C(=O)N[C@H]2C[C@H]3OCC[C@@H]23)o1` were, in that order, -20% and 3.09.
For `N#Cc1cnc(NCCCOC2CCCC2)nc1N`, the “% Inhibition” value was -2% and the Z score turned out to be 0.44.
As for `Cc1ccc(Cn2cccc2C(=O)C(=O)Nc2cccc3ccccc23)cc1C`, the “% Inhibition” value is recorded as -5% and the Z score is given as 0.43.
The like results for `Cc1ccccc1-c1cncc(C(=O)N2CCCCC2)c1` were, in that order, -1% and 0.12.
On to `C[C@@H](c1ccc(-c2nc(N)nc3[nH]cnc23)cc1)N1CCCCC1`, for which the “% Inhibition” value is on record as -9% and the Z score came to 1.19.
The like results for `Cc1noc(C(C)C)c1-c1nc(-c2ccc(Br)o2)no1` were, in that order, -20% and 2.13.
Consider `CC1(C)NC(=O)N(Cc2noc(-c3cnccn3)n2)C1=O`, for which the “% Inhibition” value was -5% and the Z score is 1.04.
